# In PubChem BioAssay AID1159614 (National Center for Advancing Translational Sciences (NCATS), 2016):
# Out of some 45,000 compounds screened, about 65 (0.1%) were called active. The call rests on the fitted dose curve; in most records, active means well fitted activation curve with a large enough effect; inconclusive means small, poorly fitted or top-dose-only effect; inactive means no such curve, though single readings can be large or run the other way. Some of the results follow.
# Target: Galactocerebrosidase (Homo sapiens) (UniProt P54803)
# Sequence of UniProt P54803 (P54803 whole entry, looked up): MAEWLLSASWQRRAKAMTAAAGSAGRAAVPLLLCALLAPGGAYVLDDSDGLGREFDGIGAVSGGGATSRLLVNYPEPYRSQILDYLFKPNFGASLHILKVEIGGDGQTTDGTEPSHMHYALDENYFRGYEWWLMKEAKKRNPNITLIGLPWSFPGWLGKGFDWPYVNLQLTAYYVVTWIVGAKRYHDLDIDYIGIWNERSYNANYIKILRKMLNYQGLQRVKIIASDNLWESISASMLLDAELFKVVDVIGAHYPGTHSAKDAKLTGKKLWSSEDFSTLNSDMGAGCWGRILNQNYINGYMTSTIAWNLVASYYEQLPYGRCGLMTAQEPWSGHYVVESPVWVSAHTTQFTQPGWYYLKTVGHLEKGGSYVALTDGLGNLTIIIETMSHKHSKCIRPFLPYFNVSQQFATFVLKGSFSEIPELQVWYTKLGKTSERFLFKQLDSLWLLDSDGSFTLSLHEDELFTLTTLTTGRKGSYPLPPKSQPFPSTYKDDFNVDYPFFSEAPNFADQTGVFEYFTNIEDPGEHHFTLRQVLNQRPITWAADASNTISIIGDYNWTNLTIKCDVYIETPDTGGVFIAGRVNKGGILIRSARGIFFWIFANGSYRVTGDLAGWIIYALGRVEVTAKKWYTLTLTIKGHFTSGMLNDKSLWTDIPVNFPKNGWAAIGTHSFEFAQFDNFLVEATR
# Assay: A Novel Cell-Based Assay to Identify Small Molecules for B -Galactocerebrosidase; further: 0% is about no effect; nearly all actives have a fitted effect of over 65% in size
# Conditions: 145M-Twi-hGALC-G270D cells (Twitcher mouse brain line with human GALC G270D), HMU-beta-Gal fluorescence, 48 h; series mostly up to 57.5 µM; activation: at the top concentration
# Summary of the method: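 Live 145M-Twi cells (Twitcher mouse brain-derived, GALC-null) stably expressing human GALC-G270D, with a wild-type GALC line, were compound-treated. Residual GALC activity was then read as fluorescence from 0.1 mM final HMU-β-gal at pH 5.2; higher signal means activation.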
row,SMILES,activation
1,CCc1ccc(C(=O)C(C)CN2CCCCC2)cc1 (stereo unspecified),inactive: -3.99%
2,O=C(c1ccccc1)N1CCc2cc(CNS(=O)(=O)c3ccc(Cl)s3)ccc21,inactive: -2.69%
3,CC(=O)Nc1cccc(NC(=O)Cn2cnc3c(oc4ccccc43)c2=O)c1,inactive: -16%
4,COc1ccccc1CNC(=O)CCCCn1c(=O)c2ccccc2n(Cc2ccccc2F)c1=O,inactive: -2.49%
5,Cc1nn2cc(-c3ccc(OC(C)C)cc3)nc2s1,inactive: 1.93%
6,Cn1c(=O)n(C)c2cc(N3CCOCC3)c(NS(=O)(=O)c3cccc(C#N)c3)cc21,inactive: -6.25%
7,Cc1oc(-c2ccc(Cl)cc2)nc1Cn1c(=O)cc(C)c2c(C)nn(-c3ccccc3)c21,inactive: -9.33%
8,Cc1cccc(-c2nc3c(cnn3-c3ccccc3)c(=O)n2-c2ccc(Cl)cc2)c1,inactive: -18.7%
9,Cc1ccc(-c2nc3c4c(-c5ccccc5)c(-c5ccccc5)oc4ncn3n2)cc1,inactive: -17.9%
10,Cc1ccc(CCNC(=O)C2CCN(S(=O)(=O)c3ccc4c(ccn4C)c3)CC2)cc1,inactive: -16.2%
11,CCOc1ccc(NC(=O)c2c(C)oc3nc(C)nc(N4CCOCC4)c23)cc1,inactive: -2.95%
12,Cc1ccc(CNC(=O)CSc2nc3ccccc3nc2Cc2ccc(C)cc2)cc1,inactive: -10.7%
13,COc1ccc(NC(=O)CSc2nc(C)cc(C)c2C(=O)Nc2ccccc2OC)cc1,inactive: -11.7%
14,COc1ccc(S(=O)(=O)NCC(c2ccco2)S(=O)(=O)c2cccs2)cc1F (stereo unspecified),inactive: -13.6%
15,COC(=O)c1cc(S(=O)(=O)NCC2CCN(Cc3cccc(F)c3)CC2)cn1C,inactive: -21.2%
16,Cn1c(=O)c2c(-c3ccc(Cl)cc3)n(CCc3ccccc3)cc2n(C)c1=O,inactive: 2.22%
17,Cc1ccc2nc(Cl)c3cc(C(=O)N4CCCCC4)sc3c2c1,inactive: -8.37%
18,CN(C(=O)c1c(O)c2ccccc2n(C)c1=O)c1ccccc1,inactive: -14.6%
19,OCc1ccccn1,inactive: -13.3%
20,Cc1cc(C)c(Cn2c(=O)n(CCCC(=O)NCc3ccc4c(c3)OCO4)c(=O)c3sccc32)c(C)c1,inactive: -15.2%
21,CNC(=O)C1CCC(Cn2c(=O)c3sccc3n(CC(=O)N3CCC(C)CC3)c2=O)CC1 (stereo unspecified),inactive: -10.9%
22,Cc1ccc(-n2ncc(C(=O)NCc3ccco3)c2C2CCN(C(=O)OC(C)(C)C)CC2)cc1,inactive: -8.54%
23,CCc1ccc(C(=O)CC2(O)C(=O)N(CCc3ccccc3)c3ccc(Cl)cc32)cc1 (stereo unspecified),inactive: 4%
24,Cn1c(=O)c2c(nc(SCC(=O)Nc3ccc(F)c(F)c3)n2Cc2ccccc2F)n(C)c1=O,inactive: 1.2%

row,SMILES,activation
1,Cn1nnc2c(NCc3c(F)cccc3F)ncnc21,inactive: -19.3%
2,COc1ccc(N(C(=O)Cn2nnc3ccccc32)C(C(=O)NCc2ccccc2)c2ccc(F)cc2)cc1 (stereo unspecified),inactive: -6.14%
3,COc1ccc(CCNC(=O)c2cc(=O)c3cc(C)c(C)cc3o2)cc1OC,inactive: -16.8%
4,COc1ccc(N2CCN(Cc3nc4c(c(=O)[nH]c(=O)n4C)n3Cc3ccccc3F)CC2)cc1,inactive: -0.383%
5,O=C(COCc1cc(-c2ccc3c(c2)OCO3)on1)Nc1cc(Cl)ccc1O,inactive: -5.21%
6,COc1ccc(-c2noc(CNC(=O)COc3cccc(C)c3C)n2)cc1,inactive: -15.8%
7,O=C(NCCc1ccc(Cl)cc1)C1CCN(S(=O)(=O)c2ccc3[nH]ccc3c2)CC1,inactive: -12.3%
8,COc1ccc(CCNC(=O)C(=O)NCC(c2cccs2)S(=O)(=O)c2ccc(F)cc2)cc1 (stereo unspecified),inactive: -12.7%
9,COc1ccc(-c2nc(CSCC(=O)NCc3ccccc3Cl)c(C)o2)cc1OC,inactive: -14%
10,CCOC(=O)c1c(C)oc2nc(C)nc(NCCCN3CCN(c4cc(C)ccc4C)CC3)c12,inactive: -13.7%
11,CC(C)c1ccc(Nc2c(-c3ccccn3)nc3ccccn23)cc1,inactive: -11.1%
12,Cc1ccc(CCNC(=O)c2ccc(Nc3nc4ccccc4n4nnnc34)cc2)cc1,inactive: -8.29%
13,CCCCCN1C(C(=O)c2ccccc2)=C(OC(=O)CC)c2ccccc2S1(=O)=O,inactive: -19.9%
14,COc1cc(OC)c(NC(=O)CCc2c(C)nc3c4c(C)cc(C)nc4nn3c2C)cc1Cl,inactive: -13.8%
15,FC(F)(F)c1cccc(Nc2c3c(nc4ccc(Cl)cc24)CCC3)c1,inactive: -20.3%
16,CC(NC(=O)c1ccc2c(c1)sc1nc(-c3ccc(F)cc3)cn12)C12CC3CC(CC(C3)C1)C2 (stereo unspecified),inactive: -10.6%
17,COc1cc(NC(=O)C2CCN(S(=O)(=O)c3c(C)noc3/C=C/c3ccccc3F)CC2)cc(OC)c1OC,inactive: -7.49%
18,CC1Cn2c(C(=O)NCc3ccccc3Cl)cc3cccc(c32)S1 (stereo unspecified),inactive: -16.2%
19,COc1ccc(NC(=O)CCn2cnc3onc(-c4ccc(F)cc4)c3c2=O)cc1OC,inactive: -25.8%
20,Cc1cccc(NC(=O)c2cc3c(=O)n(Cc4cccnc4)ccc3nc2C)c1,inactive: -16.2%
21,CCC(Sc1nc2n[nH]c(C)c2c(=N)n1-c1ccccc1Cl)C(=O)N(CC)CC (stereo unspecified),inactive: -27%
22,N#Cc1cc2c(=O)n3ccccc3nc2n(-c2nnc(SCc3ccccc3Cl)s2)c1=O,inactive: -9.4%
23,CCN(CCCNC(=O)Cn1ncc2c([nH]c3ccc(C)cc32)c1=O)c1ccccc1,inactive: 0.0774%
24,COc1ccc(OC(=O)c2nc(SCc3ccccc3C)ncc2Cl)cc1,inactive: -18.8%

row,SMILES,activation
1,COc1ccnc(CS(=O)c2nc3ccc(OC(F)F)cc3[nH]2)c1OC (stereo unspecified),inactive: 6.85%
2,Cc1ccccc1OCC(=O)Nc1ccccc1OCc1cc(=O)n2ccccc2n1,inactive: -15.1%
3,CCOC(=O)Cn1c(=O)n(CC2CCCO2)c2nc(-c3cc(OC)ccc3OC)nc(C(N)=O)c21 (stereo unspecified),inactive: -7.23%
4,COc1ccc(CCNC(=O)CCc2c(C)nc3cc(-c4cccc(F)c4)nn3c2C)cc1OC,inactive: 2.57%
5,Cc1ccc(S(=O)(=O)NCCc2nnc3ccc(SCC(=O)Nc4ccc(F)cc4F)nn23)cc1,inactive: -12.8%
6,CCCOc1ccc(C(=O)N(Cc2ccco2)Cc2ccco2)cc1,inactive: -8.59%
7,O=C(NCC(c1cccs1)S(=O)(=O)c1cccs1)c1c(F)cccc1F (stereo unspecified),inactive: -10.5%
8,CC(C)c1nn2c(=O)cc(COC(=O)c3ccc(NC(=O)c4cccs4)cc3)nc2s1,inactive: -5.95%
9,COc1ccccc1-n1c(=O)n(C)c2c(C(N)=O)nc(-c3cccc(OC)c3OC)nc21,inactive: -6.72%
10,Cc1ccc(CCNC(=O)CCCc2nnc3n(C)c(=O)c4sccc4n23)cc1,inactive: -14.1%
11,COc1ccc(C(=O)Nc2cccc(C(=O)OCc3cc(=O)n4c5c(sc4n3)CCCC5)c2)cc1,inactive: -14.9%
12,COc1cccc(CSc2nc3n(n2)C(CC(C)C)C(C(=O)Nc2ccccc2C)=C(C)N3)c1 (stereo unspecified),inactive: -8.46%
13,Cc1cc(C)c2c(CC(=O)Nc3cc(C(F)(F)F)ccc3Cl)coc2c1,inactive: -10.9%
14,Cc1ccc2nc(NC(=O)c3ccc(S(=O)(=O)N4CCCc5ccccc54)cc3)sc2c1,inactive: -3.6%
15,COCCCn1c(=O)c2sccc2n2c(CCCC(=O)Nc3ccc(F)c(F)c3)nnc12,inactive: 4.88%
16,O=C(O)C1(C(=O)O)CCC1.[NH2-].[NH2-].[Pt+2],inactive: -2.25%
17,Cc1ccccc1-c1nc2scc(CCNC(=O)C(=O)Nc3ccc(F)cc3F)n2n1,inactive: -11.2%
18,CN1CCN(C2(CNC(=O)c3ccc([N+](=O)[O-])cc3)CCCCC2)CC1,inactive: 5.35%
19,Cc1cc(C)nc(NS(=O)(=O)c2ccc(NC(=O)c3cc(=O)c4ccc(C)c(C)c4o3)cc2)n1,inactive: -15.5%
20,CCN1CCOC(=O)C1CC(=O)Nc1ccc(C)c(Cl)c1 (stereo unspecified),inactive: -12%
21,O=C(C1CCCCC1)N(Cc1cccnc1)c1nc2c(F)cc(F)cc2s1,inactive: -20.3%
22,COc1ccc(OC)c(NC(=O)c2c(NCc3ccc(OC)c(OC)c3)sc3c2CCC(C)C3)c1 (stereo unspecified),inactive: -12.4%
23,COc1ccc(CNC(=O)CCC2N=C3c4ccccc4N=C(SCc4ccc(F)cc4)N3C2=O)cc1 (stereo unspecified),inactive: -3.42%
24,Nc1c(C(=O)Nc2cccc(F)c2)sc2nc(-c3cccs3)ccc12,inactive: -10.1%

row,SMILES,activation
1,Cc1ccccc1OCCCCn1c(C2CC(=O)N(c3ccccc3Cl)C2)nc2ccccc21 (stereo unspecified),inactive: 2.18%
2,Nc1c(C(=O)NCCc2ccccc2)nnn1CC(=O)Nc1ccc(Cl)cc1,inactive: -12.9%
3,CCCn1c(CCC(=O)Nc2cccc(C)c2C)nc2cccnc21,inactive: -6.11%
4,COc1cc(NS(=O)(=O)c2ccc3[nH]c4c(c3c2)CCCC4)cc(OC)c1OC,inactive: 1.51%
5,C=Cc1ccc(Cn2c(C(=O)O)c(CNCCc3ccccc3)c3ccc(C)cc32)cc1,inactive: 5.13%
6,O=C(CSc1nc2c([nH]c3ccccc32)c(=O)n1-c1ccccc1)c1ccc(Cl)cc1,inactive: -8.87%
7,CCOC(=O)C1CCCN(c2c(C(=O)c3ccc(C)cc3)cnc3ccc(OCC)cc23)C1 (stereo unspecified),inactive: -17.5%
8,COc1ccc(CC(=O)Nc2ccc3nc(Nc4cccc(Cl)c4)cc(C)c3c2)cc1,inactive: -3.82%
9,Cc1ccc(Nc2c(-c3ccc(N4CCOCC4)cc3)nc3c(C)cccn23)cc1,inactive: -13.7%
10,Cc1cc(-c2ccc(S(=O)(=O)Nc3cc(Cl)ccc3C)s2)on1,inactive: -11%
11,COc1ccc(CCNC(=O)c2cc3c(-c4ccc(OC)c(OC)c4)nn(C)c3s2)cc1OC,inactive: -19.8%
12,COCCn1c(SCC(=O)Nc2cccc(C)c2C)nc2c(oc3ccccc32)c1=O,inactive: -11.2%
13,CCOC(=O)c1c(C)[nH]c(CCC(=O)NCc2cccc(OC)c2)c1C,inactive: -28.7%
14,Cc1ccc(Cl)cc1N1CCN(C(=O)CCn2c(=O)c3cccn3c3cccnc32)CC1,inactive: 4.26%
15,Cc1ccc(Cn2c(CO)cnc2SCc2cccc(F)c2)cc1,inactive: -12.5%
16,Cc1ccc(Cl)cc1N1CCN(C(=O)c2ccc(CS(=O)(=O)c3ccc(Br)cc3)o2)CC1,inactive: 0.847%
17,Cc1oc2ncn(C)c(=O)c2c1C(=O)N(Cc1ccccc1)C(C)C,inactive: -10.7%
18,Cc1cccc(CC(=O)NC2CC(=O)N(c3ccccc3)C2)c1 (stereo unspecified),inactive: 1.47%
19,O=C(CSc1nc(=O)n(CCN2CCOCC2)c2c1CCC2)Nc1cccc(Cl)c1,inactive: -15.6%
20,COc1ccc(C(CNC(=O)Cc2ccc(Cl)cc2)N2CCOCC2)cc1 (stereo unspecified),inactive: -7.35%
21,O=C(CC(c1cccs1)N1Cc2ccccc2C1=O)Nc1ccc(F)cc1F (stereo unspecified),inactive: -20.1%
22,CCc1ccccc1NC(=O)CSc1nc2ncccc2o1,inactive: 1.82%
23,O=C(CCc1ccccc1)N1CCc2c([nH]c3ccccc23)C1c1ccc(Cl)cc1 (stereo unspecified),inactive: -36.5%
24,O=c1c2c3c(sc2n(Cc2ccccc2F)c(=O)n1-c1ccc(Cl)cc1)CCCC3,inactive: -13.6%
